# In the supplement of paper PMC8728848:
# The list shows a part of the results.
# B1: AAL (Agrocybe aegerita), Q6WY08 (protein)
# chain: MQGVNIYNISAGTSVDLAAPVTTGDIVTFFSSALNLNAGAGNPNNTTLNLFAENGAYLLHIAFRLQENVIIFNSRQPDGPWLVEQRVSDVANQFAGIDGKAMVTVFDHGDKYQVVINEKTVIQYTKQISGLTLSLSYNATEETSIFSTVVEAVTYTGLALEHHHHHH
# Key:
# Experiment in all cases: glycan array binding signal (z-score within array); higher = stronger binding
# Details in all cases: glycan notation: IUPAC condensed, linker removed
# [1] = target: Neu5Ac(a2-3)Gal(b1-4)GlcNAc(b1-2)Man(a1-3)[Neu5Ac(a2-3)Gal(b1-4)GlcNAc(b1-2)Man(a1-6)]Man(b1-4)GlcNAc(b1-4)[Fuc(a1-6)]GlcNAc
# How it was run: (§1)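 The Consortium for Functional Glycomics database supplied 3228 glycan arrays, of which those lacking an available protein sequence were dropped. The binding signal, a within-array Z-score, was averaged across arrays of the same protein sequence and across linkers. Negative scores can be read as non-binding.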
# [2] = target: Neu5Ac(a2-3)Gal(b1-4)GlcNAc(b1-2)Man(a1-3)[Neu5Ac(a2-6)Gal(b1-4)GlcNAc(b1-2)Man(a1-6)]Man(b1-4)GlcNAc(b1-4)GlcNAc
# How it was run: as §1
# [3] = target: Neu5Ac(a2-3)Gal(b1-4)GlcNAc(b1-2)[Neu5Ac(a2-3)Gal(b1-4)GlcNAc(b1-4)]Man(a1-3)[GlcNAc(b1-4)][Neu5Ac(a2-3)Gal(b1-4)GlcNAc(b1-2)[Neu5Ac(a2-3)Gal(b1-4)GlcNAc(b1-6)]Man(a1-6)]Man(b1-4)GlcNAc(b1-4)GlcNAc
# How it was run: as §1
# [4] = target: Neu5Ac(a2-3)Gal(b1-4)GlcNAc(b1-2)[Neu5Ac(a2-3)Gal(b1-4)GlcNAc(b1-4)]Man(a1-3)[GlcNAc(b1-4)][Neu5Ac(a2-3)Gal(b1-4)GlcNAc(b1-4)Man(a1-6)]Man(b1-4)GlcNAc(b1-4)GlcNAc
# How it was run: as §1
# [5] = target: Neu5Ac(a2-3)Gal(b1-4)GlcNAc(b1-2)[Neu5Ac(a2-3)Gal(b1-4)GlcNAc(b1-6)]Man(a1-6)[Neu5Ac(a2-3)Gal(b1-4)GlcNAc(b1-2)Man(a1-3)]Man(b1-4)GlcNAc(b1-4)GlcNAc
# How it was run: as §1
# [6] = target: Neu5Ac(a2-3)Gal(b1-4)GlcNAc(b1-2)[Neu5Ac(a2-3)Gal(b1-4)GlcNAc(b1-6)]Man(a1-6)[Neu5Ac(a2-3)Gal(b1-4)GlcNAc(b1-2)Man(a1-3)][GlcNAc(b1-4)]Man(b1-4)GlcNAc(b1-4)GlcNAc
# How it was run: as §1
# [7] = target: Neu5Ac(a2-3)Gal(b1-4)GlcNAc(b1-3)Gal
# How it was run: as §1
# [8] = target: Neu5Ac(a2-3)Gal(b1-4)GlcNAc(b1-3)Gal(b1-3)GlcNAc
# How it was run: as §1
# [9] = target: Neu5Ac(a2-3)Gal(b1-4)GlcNAc(b1-3)Gal(b1-4)GlcNAc
# How it was run: as §1
# [10] = target: Neu5Ac(a2-3)Gal(b1-4)GlcNAc(b1-3)Gal(b1-4)GlcNAc(b1-2)Man(a1-3)[Neu5Ac(a2-3)Gal(b1-4)GlcNAc(b1-3)Gal(b1-4)GlcNAc(b1-2)Man(a1-6)]Man(b1-4)GlcNAc(b1-4)GlcNAc
# How it was run: as §1
# [11] = target: Neu5Ac(a2-3)Gal(b1-4)GlcNAc(b1-3)Gal(b1-4)GlcNAc(b1-3)Gal(b1-4)GlcNAc
# How it was run: as §1
# [12] = target: Neu5Ac(a2-3)Gal(b1-4)GlcNAc(b1-3)Gal(b1-4)GlcNAc(b1-3)Gal(b1-4)GlcNAc(b1-2)Man(a1-3)[Neu5Ac(a2-3)Gal(b1-4)GlcNAc(b1-3)Gal(b1-4)GlcNAc(b1-3)Gal(b1-4)GlcNAc(b1-2)Man(a1-6)]GalNAc
# How it was run: as §1
# [13] = target: Neu5Ac(a2-3)Gal(b1-4)GlcNAc(b1-3)Gal(b1-4)GlcNAc(b1-3)GalNAc
# How it was run: as §1
# [14] = target: Neu5Ac(a2-3)Gal(b1-4)GlcNAc(b1-3)Gal(b1-4)GlcNAc(b1-3)[Neu5Ac(a2-3)Gal(b1-4)GlcNAc(b1-3)Gal(b1-4)GlcNAc(b1-6)]GalNAc
# How it was run: as §1
# [15] = target: Neu5Ac(a2-3)Gal(b1-4)GlcNAc(b1-3)Gal(b1-4)GlcNAc(b1-6)[Gal(b1-3)]GalNAc
# How it was run: as §1
# [16] = target: Neu5Ac(a2-3)Gal(b1-4)GlcNAc(b1-3)Gal(b1-4)[Fuc(a1-3)]GlcNAc
# How it was run: as §1
# [17] = target: Neu5Ac(a2-3)Gal(b1-4)GlcNAc(b1-3)GalNAc
# How it was run: as §1
# [18] = target: Neu5Ac(a2-3)Gal(b1-4)GlcNAc(b1-3)[Neu5Ac(a2-3)Gal(b1-4)GlcNAc(b1-6)]GalNAc
# How it was run: as §1
# [19] = target: Neu5Ac(a2-3)Gal(b1-4)GlcNAc(b1-6)GalNAc
# How it was run: as §1
# [20] = target: Neu5Ac(a2-3)Gal(b1-4)GlcNAc(b1-6)[Gal(b1-3)]GalNAc
# How it was run: as §1
# [21] = target: Neu5Ac(a2-3)Gal(b1-4)GlcNAc(b1-6)[Neu5Ac(a2-3)Gal(b1-3)]GalNAc
# How it was run: as §1
# [22] = target: Neu5Ac(a2-3)Gal(b1-4)GlcNAc6S
# How it was run: as §1
# [23] = target: Neu5Ac(a2-3)Gal(b1-4)[Fuc(a1-3)]GlcNAc
# How it was run: as §1
# [24] = target: Neu5Ac(a2-3)Gal(b1-4)[Fuc(a1-3)]GlcNAc(b1-2)Man
# How it was run: as §1
# [25] = target: Neu5Ac(a2-3)Gal(b1-4)[Fuc(a1-3)]GlcNAc(b1-3)Gal
# How it was run: as §1
# [26] = target: Neu5Ac(a2-3)Gal(b1-4)[Fuc(a1-3)]GlcNAc(b1-3)Gal(b1-4)GlcNAc
# How it was run: as §1
# [27] = target: Neu5Ac(a2-3)Gal(b1-4)[Fuc(a1-3)]GlcNAc(b1-3)Gal(b1-4)[Fuc(a1-3)]GlcNAc(b1-3)Gal(b1-4)[Fuc(a1-3)]GlcNAc
# How it was run: as §1
# [28] = target: Neu5Ac(a2-3)Gal(b1-4)[Fuc(a1-3)]GlcNAc(b1-3)GalNAc
# How it was run: as §1
# [29] = target: Neu5Ac(a2-3)Gal(b1-4)[Fuc(a1-3)]GlcNAc(b1-6)[Gal(b1-3)]GalNAc
# How it was run: as §1
# [30] = target: Neu5Ac(a2-3)Gal(b1-4)[Fuc(a1-3)]GlcNAc(b1-6)[Neu5Ac(a2-3)Gal(b1-3)]GalNAc
# How it was run: as §1
# [31] = target: Neu5Ac(a2-3)Gal(b1-4)[Fuc(a1-3)]GlcNAc6S
# How it was run: as §1
# [32] = target: Neu5Ac(a2-3)Gal6S(b1-4)GlcNAc
# How it was run: as §1
# [33] = target: Neu5Ac(a2-3)Gal6S(b1-4)[Fuc(a1-3)]GlcNAc
# How it was run: as §1
# [34] = target: Neu5Ac(a2-3)GalNAc
# How it was run: as §1
# [35] = target: Neu5Ac(a2-3)GalNAc(b1-4)GlcNAc
# How it was run: as §1
# [36] = target: Neu5Ac(a2-3)[GalNAc(b1-4)]Gal(b1-4)Glc
# How it was run: as §1
# [37] = target: Neu5Ac(a2-3)[GalNAc(b1-4)]Gal(b1-4)GlcNAc
# How it was run: as §1
# [38] = target: Neu5Ac(a2-3)[GalNAc(b1-4)]Gal(b1-4)GlcNAc(b1-3)GalNAc
# How it was run: as §1
# [39] = target: Neu5Ac(a2-3)[Neu5Ac(a2-6)]GalNAc
# How it was run: as §1
# [40] = target: Neu5Ac(a2-6)Gal
# How it was run: as §1
# [41] = target: Neu5Ac(a2-6)Gal(b1-3)GlcNAc(b1-3)[Gal(b1-4)GlcNAc(b1-6)]Gal(b1-4)Glc
# How it was run: as §1
# [42] = target: Neu5Ac(a2-6)Gal(b1-4)Glc
# How it was run: as §1
# [43] = target: Neu5Ac(a2-6)Gal(b1-4)GlcNAc
# How it was run: as §1
# [44] = target: Neu5Ac(a2-6)Gal(b1-4)GlcNAc(b1-2)Man
# How it was run: as §1
# [45] = target: Neu5Ac(a2-6)Gal(b1-4)GlcNAc(b1-2)Man(a1-3)Man(b1-4)GlcNAc(b1-4)GlcNAc
# How it was run: as §1
binder,measurement,setting,value
B1,glycan array binding signal (z-score),[1],3.85
same,glycan array binding signal (z-score),[2],0.196
same,glycan array binding signal (z-score),[3],2.98
same,glycan array binding signal (z-score),[4],5.72
same,glycan array binding signal (z-score),[5],-0.064
same,glycan array binding signal (z-score),[6],1.46
same,glycan array binding signal (z-score),[7],0.044
same,glycan array binding signal (z-score),[8],0.282
same,glycan array binding signal (z-score),[9],0.098
same,glycan array binding signal (z-score),[10],-0.117
same,glycan array binding signal (z-score),[11],0.953
same,glycan array binding signal (z-score),[12],-0.107
same,glycan array binding signal (z-score),[13],-0.106
same,glycan array binding signal (z-score),[14],-0.098
same,glycan array binding signal (z-score),[15],0.11
same,glycan array binding signal (z-score),[16],-0.131
same,glycan array binding signal (z-score),[17],0.017
same,glycan array binding signal (z-score),[18],-0.15
same,glycan array binding signal (z-score),[19],-0.159
same,glycan array binding signal (z-score),[20],-0.141
same,glycan array binding signal (z-score),[21],0.279
same,glycan array binding signal (z-score),[22],-0.117
same,glycan array binding signal (z-score),[23],-0.154
same,glycan array binding signal (z-score),[24],-0.147
same,glycan array binding signal (z-score),[25],-0.142
same,glycan array binding signal (z-score),[26],-0.145
same,glycan array binding signal (z-score),[27],-0.158
same,glycan array binding signal (z-score),[28],-0.108
same,glycan array binding signal (z-score),[29],-0.143
same,glycan array binding signal (z-score),[30],-0.087
same,glycan array binding signal (z-score),[31],-0.148
same,glycan array binding signal (z-score),[32],-0.156
same,glycan array binding signal (z-score),[33],-0.161
same,glycan array binding signal (z-score),[34],-0.143
same,glycan array binding signal (z-score),[35],-0.155
same,glycan array binding signal (z-score),[36],-0.153
same,glycan array binding signal (z-score),[37],-0.149
same,glycan array binding signal (z-score),[38],-0.153
same,glycan array binding signal (z-score),[39],-0.128
same,glycan array binding signal (z-score),[40],-0.15
same,glycan array binding signal (z-score),[41],-0.151
same,glycan array binding signal (z-score),[42],-0.148
same,glycan array binding signal (z-score),[43],-0.159
same,glycan array binding signal (z-score),[44],-0.1
same,glycan array binding signal (z-score),[45],-0.154
